# The other results are listed elsewhere or left out.
# How the values were obtained:
# Assay in all cases: glycan array binding signal (z-score within array); higher = stronger binding
# Settings in all cases: glycan notation: IUPAC condensed, linker removed
# [1] = biological target: Neu5Ac(a2-8)Neu5Ac(a2-3)[GalNAc(b1-4)]Gal(b1-4)Glc
# Summary of the method: (§1)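 Glycan array binding is given as a within-array Z-score, which can be read as non-binding when negative. The arrays, 3228 of them, came from the Consortium for Functional Glycomics database and were retained only where the protein sequence was available. Z-scores were averaged across arrays of the same protein sequence at different concentrations or buffers and across linkers.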
# [2] = biological target: Neu5Ac(a2-8)Neu5Ac(a2-8)Neu5Ac
# Summary of the method: as §1
# [3] = biological target: Neu5Ac(a2-8)Neu5Ac(a2-8)Neu5Ac(a2-3)Gal(b1-4)Glc
# Summary of the method: as §1
# [4] = biological target: Neu5Ac(a2-8)Neu5Ac(a2-8)Neu5Ac(a2-3)[GalNAc(b1-4)]Gal(b1-4)Glc
# Summary of the method: as §1
# [5] = biological target: Neu5Ac(a2-8)Neu5Ac(a2-8)Neu5Ac(a2-8)Neu5Ac(a2-3)[GalNAc(b1-4)]Gal(b1-4)Glc
# Summary of the method: as §1
# [6] = biological target: Neu5Ac(b1-6)GalNAc
# Summary of the method: as §1
# [7] = biological target: Neu5Ac(b2-6)Gal(b1-4)GlcNAc
# Summary of the method: as §1
# [8] = biological target: Neu5Ac9Ac(a2-6)Gal(b1-4)GlcNAc
# Summary of the method: as §1
# [9] = biological target: Neu5Gc(a2-3)Gal(b1-3)GlcNAc
# Summary of the method: as §1
# [10] = biological target: Neu5Gc(a2-3)Gal(b1-3)[Fuc(a1-4)]GlcNAc
# Summary of the method: as §1
# [11] = biological target: Neu5Gc(a2-3)Gal(b1-4)Glc
# Summary of the method: as §1
# [12] = biological target: Neu5Gc(a2-3)Gal(b1-4)GlcNAc
# Summary of the method: as §1
# [13] = biological target: Neu5Gc(a2-3)Gal(b1-4)[Fuc(a1-3)]GlcNAc
# Summary of the method: as §1
# [14] = biological target: Neu5Gc(a2-6)Gal(b1-4)GlcNAc
# Summary of the method: as §1
# [15] = biological target: Neu5Gc(a2-6)GalNAc
# Summary of the method: as §1
binder,measurement,setting,value
"AICL (Homo sapiens), Q92478 (protein) MMTKHKKCFIIVGVLITTNIITLIVKLTRDSQSLCPYDWIGFQNKCYYFSKEEGDWNSSKYNCSTQHADLTIIDNIEEMNFLRRYKCSSDHWIGLKMAKNRTGQWVDGATFTKSFGMRGSEGCAYLSDDGAATARCYTERKWICRKRIH",glycan array binding signal (z-score),[1],0.023
same,glycan array binding signal (z-score),[2],0.668
same,glycan array binding signal (z-score),[3],0.329
same,glycan array binding signal (z-score),[4],0.11
same,glycan array binding signal (z-score),[5],0.188
same,glycan array binding signal (z-score),[6],-0.464
same,glycan array binding signal (z-score),[7],-0.099
same,glycan array binding signal (z-score),[8],-0.182
same,glycan array binding signal (z-score),[9],0.332
same,glycan array binding signal (z-score),[10],-0.323
same,glycan array binding signal (z-score),[11],-0.04
same,glycan array binding signal (z-score),[12],0.329
same,glycan array binding signal (z-score),[13],0.025
same,glycan array binding signal (z-score),[14],-0.267
same,glycan array binding signal (z-score),[15],-0.482

# From the supplement of paper PMC8728848
